Screen size: about 52,000 compounds; about 1,700 (3.3%) were called active. No stated cut-off is given here; in the data, active means survival mostly below about 52% (no sharp cut-off); inactive means mostly above about 56%. The list shows a part of the results.
What follows are molecules tested on Wild type (assay: growth inhibition of S. aureus wild type versus tarO mutant, primary screen, teichoic acid synthesis inhibitors, RN4220, OD600 (AID 463173)). Details: S. aureus RN4220 wild type/DeltatarO growth, OD600, 18 h, active compounds read low, screened at 18.75 µg/mL (by protocol).

SMILES | survival
CC1CCCCN1Cc1c(C#N)c2ccccc2n1C (centres undefined) | inactive: 109%
CC(C)CCOc1ccc(C(=O)Nc2sc3c(c2C#N)CCCCC3)cc1 | inactive: 135%
Cn1nnnc1SCCCNCc1cccc(OCc2ccc(Cl)cc2)c1 | inactive: 22%
O=C(Nc1ccc(F)cc1)[C@H](Cc1ccccc1)N1Cc2ccccc2C1=O | inactive: 91%
CCOc1ccccc1NC(=O)C1CCN(S(=O)(=O)c2c(C)noc2/C=C/c2ccc(C)cc2)CC1 | inactive: 97%
CCOc1ccc(C(=O)NCCn2cc(SCC(=O)NCCc3ccc(OC)c(OC)c3)c3ccccc32)cc1 | inactive: 62%
COC(=O)c1ccc(Nc2ncnc3c2nc2n3CCCC2)cc1 | inactive: 131%
COc1ccccc1OCCn1cc(C(=O)c2cccs2)c2ccccc21 | inactive: 102%
O=C(c1cc2c(=O)oc3ccccc3c2s1)N1CCN(c2cccc(Cl)c2)CC1 | inactive: 145%
COc1ccc(Cl)cc1NC(=O)Cn1ccn(Cc2ccc(C)cc2)c(=O)c1=O | inactive: 69%
Cc1cccc(-n2c(SCC(N)=O)nc3c(oc4ccccc43)c2=O)c1 | inactive: 75%
CCOC(=O)N1CCN(C(=O)CN(c2cccc(Cl)c2C)S(=O)(=O)c2ccc(C)cc2)CC1 | inactive: 115%
O=C(Nc1ccccc1)c1cccc2c(=O)c3c([nH]c12)CCCC3 | inactive: 77%
Cn1c(SCc2ccc(F)cc2)nc2ccc(C(=O)NCc3ccc(F)cc3)cc21 | inactive: 55%
Cc1nn(CC(=O)NC2CC2)c(=O)c2cc3ccccc3n12 | inactive: 86%
O=C(Nc1ccccc1NC(=O)c1cccs1)c1cccs1 | inactive: 111%
CCN(CC)CCN(C(=O)c1ccco1)c1nc2ccc(Cl)cc2s1 | inactive: 87%
COCCn1c(SCC(=O)c2cc(C)ccc2C)nc2cc(C(=O)NC3CCCC3)ccc2c1=O | inactive: 55%
Cc1cc(C)cc(NC(=O)c2cc(S(=O)(=O)N3CCCCCC3)cn2C)c1 | inactive: 77%
Cc1ccc(-n2nc3c(N4CCC(C(=O)NC(C)C)CC4)nnc(C)c3c2C)cc1 | inactive: 143%
CCC(Sc1nc(N)cc(=O)[nH]1)C(=O)Nc1ccccc1C#N (centres undefined) | inactive: 97%
Cc1ccc(C2Nc3ccccc3-n3c(-c4ccccc4)c4c(=O)n(C)c(=O)n(C)c4c32)o1 (centres undefined) | inactive: 74%
CC1CCCCN1C(=O)c1ccc(S(=O)(=O)NCc2cccnc2)cc1 (centres undefined) | inactive: 111%

SMILES | survival
Cc1ccc(NC(=O)Cn2c(-c3ccc4c(c3)OCO4)cn(-c3ccccc3)c2=O)cc1C | inactive: 76%
Cc1cccc(NC(=O)Cn2cc(CO)c3ccccc32)c1 | inactive: 115%
CCC1CN(C(=O)N2CCC(C(=O)NCc3ccc(OC)cc3OC)CC2)c2cc(C)ccc2O1 (centres undefined) | inactive: 85%
CCOc1ccc(-c2nc(SC(C(C)=O)C(=O)N(C)C)c3c(=O)n(C)c(=O)n(C)c3n2)cc1 (centres undefined) | inactive: 68%
Cc1c(Cl)cccc1-n1ncc(C(=O)Nc2ccc3c(c2)OCCO3)c1C1CCN(C(=O)OC(C)(C)C)CC1 | inactive: 99%
O=C(NC1CCSC1=O)C1CCCCC1 (centres undefined) | inactive: 109%
CCc1ccc(NC(=O)c2ccc3c(c2)nnn3CC)cc1 | active: -6%
Cc1ccc2cc3cc(C(=O)Nc4ccc(F)cc4Cl)oc3nc2c1 | inactive: 82%
Cc1ccccc1OCC(=O)OCc1cc(=O)n2ccsc2n1 | inactive: 82%
CCN(CC)S(=O)(=O)c1ccc2c(c1)N(CC(=O)N1CCN(c3cccc(C(F)(F)F)c3)CC1)C(=O)CO2 | inactive: 54%
CCOC(=O)c1c(-n2cnnn2)sc(C)c1C | inactive: 111%
COc1ccc(N2CCN(C(=O)c3nc(-c4ccc(Cl)cc4)n4c3CCCCC4)CC2)cc1 | inactive: 68%
Cc1ccc(Cl)cc1N1CCN(CCNC(=O)Nc2ccc(Cl)cc2)CC1 | active: -6%
O=C(C1CCN(S(=O)(=O)c2cccc3nonc23)CC1)N1CCN(c2ccccc2)CC1 | inactive: 82%
COc1ccc(NC(=O)c2nnn(Cc3ccc(Br)cc3F)c2N)c(OC)c1 | inactive: 88%
CCOc1ccc(CNC(=O)c2ccc(CS(=O)c3ccccc3)o2)cc1 (centres undefined) | inactive: 87%
CS(=O)(=O)N1CCc2cc(C(=O)N3CCN(c4ccc(F)cc4)CC3)ccc21 | inactive: 89%
Cc1ccc2nc(SCC(=O)N3CCCCC3)c(C#N)cc2c1 | inactive: 111%
CC(=O)N1CCCc2ccc(NS(=O)(=O)c3ccc(F)cc3F)cc21 | inactive: 64%
Cc1ccccc1NC(=O)Cn1nc(-c2ccc(F)cc2)c2cnc3ccccc3c21 | inactive: 19%
Cc1ccc(-n2c(SCC(=O)Nc3cccc(Cl)c3)nc3n[nH]c(C)c3c2=N)cc1 | inactive: 85%
Cc1ccc(N2CC(NC(=O)c3ccc4c(c3)OCO4)CC2=O)cc1 (centres undefined) | inactive: 70%
CC(C)c1ccc(Nc2c(-c3ccccc3O)nc3cnccn23)cc1 | inactive: 61%

SMILES | survival
Cc1cc(N2CCC(C)CC2)nc2ccc(NC(=O)/C=C/c3cccc(Cl)c3)cc12 | inactive: 69%
CCOc1ccc(-c2c(C)nn3c(C)c(C(=O)NCc4ccc(C)o4)cnc23)cc1OCC | inactive: 90%
O=C(NCCc1ccc(Cl)cc1)c1ccc(CS(=O)(=O)Cc2ccccc2F)o1 | active: -3%
CC(=O)N1CCc2c(sc3c2c(=O)n(-c2ccc(C)cc2)c(=O)n3CC(=O)Nc2ccccc2)C1 | inactive: 122%
Cn1c(Oc2ccc(F)cc2)nc2c1c(=O)n(Cc1ccccc1Cl)c(=O)n2C | inactive: 78%
Cc1ccc2nc(NC(=O)c3cc(=O)c4cc(Cl)ccc4o3)sc2c1 | inactive: 76%
CCc1ccccc1NC(=O)CSc1nnc(CC)c(CC)n1 | inactive: 74%
CSc1ccc(CNC(=O)c2cc3c(=O)n(Cc4ccco4)ccc3nc2C)cc1 | inactive: 128%
COc1ccccc1NC(=O)c1c(NC(=O)c2ccccc2F)sc2c1CCC2 | inactive: 115%
COc1ccc(C(c2nnnn2CC2CCCO2)N2CCN(c3ccc(F)cc3)CC2)cc1OC (centres undefined) | inactive: 100%
COC(=O)c1c(NC(=O)c2ccccc2C(=O)O)sc2c1CCCC2 | inactive: 110%
COc1ccc(Cn2ccc3nc(C)c(C(=O)Nc4ccc(C)c(F)c4)cc3c2=O)cc1 | inactive: 47%
Cc1ccc(-c2cc(C(=O)NCc3ccccc3)c3c(-c4ccc(C)cc4)[nH]nc3n2)cc1 | inactive: 75%
Cc1c(Cl)cccc1NC(=O)Cn1nc(C)c2sc3ccccc3c2c1=O | inactive: 87%
Cc1ccc(C)c(S(=O)(=O)c2nnn3c2nc(Nc2ccc(F)c(Cl)c2)c2sccc23)c1 | inactive: 38%
Cc1nc(SCC(=O)Nc2ccc(Br)cc2)[nH]c(=O)c1Cc1ccccc1 | inactive: 48%
COc1ccc(N2CCN(C(=O)c3ccc4c(c3)CCN4S(C)(=O)=O)CC2)cc1 | inactive: 92%
CCSc1nc2c(c(=O)[nH]c(=O)n2C)n1CC(O)COc1ccc(Cl)cc1 (centres undefined) | inactive: 161%
CCCCOC(=O)c1ccc(NC(=O)Cc2coc3ccc(C(C)C)cc23)cc1 | inactive: 88%
Nc1nc(NC(=O)CCC(=O)O)nn1-c1ccccc1 | inactive: 105%
Cc1ccc2c(c1)N(C(=O)N1CCC(C(=O)NCc3ccco3)CC1)CC(C)O2 (centres undefined) | inactive: 98%
Cc1ccc(S(=O)(=O)CCC(=O)N2CCN(c3nc4c(C)c(Cl)ccc4s3)CC2)cc1 | inactive: 68%
CCc1ccc(OCC(=O)NCc2nc(-c3cccc(C)c3)no2)c(Br)c1 | inactive: 117%

SMILES | survival
Cc1cccc(C(=O)Nc2nc(-c3ccc(Br)cc3)ns2)c1 | inactive: 83%
COc1cc(C(=O)N2CCc3c([nH]c4ccccc34)C2c2ccccc2)cc(OC)c1OC (centres undefined) | inactive: 54%
COc1ccccc1OCCn1c(-c2ccc(Br)cc2)nc2ccccc2c1=O | inactive: 80%
Cc1cccc(N(CC(=O)NCCSc2ccc(Cl)cc2)S(=O)(=O)c2ccccc2)c1C | inactive: 75%
CCOC(=O)C1CCN(C(=O)Cn2ncc3c([nH]c4ccc(C)cc43)c2=O)CC1 | inactive: 71%
CC(=O)N1CCC2(CC1)OC(=O)C(C)=C2C(=O)Nc1ccccc1C(F)(F)F | inactive: 88%
O=C(CNCC1CCCO1)Nc1ccccc1-n1cccc1 (centres undefined) | inactive: 108%
CSc1ncc(C(=O)N2CCN(c3ccc(F)cc3)CC2)c(C)n1 | inactive: 88%
CCOC(=O)C1CCC(CN(Cc2c(Cl)cccc2Cl)S(=O)(=O)c2ccc(F)cc2)CC1 (centres undefined) | inactive: 49%
Cc1ccc(C)c(N2CCN(C(=O)c3cc(S(=O)(=O)N4CCCC4)cn3C)CC2)c1 | inactive: 86%
COc1cccc(-c2nn(C)c3sc(C(=O)N4CCN(c5cccc(C)c5)C(C)C4)cc23)c1 (centres undefined) | inactive: 72%
COc1ccccc1CCNC(=O)Cn1ccc2cc(S(=O)(=O)N3CCCCCC3)ccc21 | inactive: 76%
CCc1nnc(SCc2nc(-c3ccc(OC)cc3)oc2C)c2cc3sccc3n12 | inactive: 86%
Cc1ccc(OCCCCn2c(CCNC(=O)C(C)(C)C)nc3ccccc32)cc1 | inactive: 76%
Cc1ccccc1NC(=O)CN1C(=O)CCn2nc(-c3cccn3C)cc21 | inactive: 59%
Cc1sc2c(c1C)c(=O)n(-c1cccc(C(F)(F)F)c1)c(=O)n2Cc1ccccc1C#N | inactive: 124%
CCn1cc(C(=O)NCc2ccccc2Cl)c(=O)c2cc(S(=O)(=O)N3CCCCC3)ccc21 | inactive: 80%
CCOc1ccc(N(CC)C(=O)CSc2n[nH]c(-c3ccccc3)n2)cc1 | inactive: 67%
CC(=O)Nc1ccc(C(=O)NCCN2CCOCC2)cc1 | inactive: 103%
Cc1ncc(CO)c2c1Oc1nc(-c3ccccc3)nc(SCC(=O)Nc3cccc(C(F)(F)F)c3)c1C2 | inactive: 110%

Reference: PubChem BioAssay AID463173 (ICCB-Longwood Screening Facility, Harvard Medical School, 2010)
